# The other results are listed elsewhere or left out. Cleavage of a single-stranded DNA pool by Rep nickase domains was read by sequencing (1 h at 37 °C, 3 µM enzyme); the outer parts of the 90-letter strands are left off. Uncut reads are compared with the no-enzyme pool on a log2 scale; the lower, the more was cut; hits are not called. Shares of all reads are compared; uncut strands gain when others are lost, and binding without cutting may add a little.
# Tests used:
# Assay in all cases: uncleaved DNA left, log2 of reads against the no-enzyme library (log2 ratio); higher = less cleavage (more negative = more Rep cleavage of the k-mer); sequences stand for … in CTCGTCCG…ACCGGAGA
# [1] = tested on: T1, Rep nickase domain of Muscovy duck circovirus
# T1 sequence (residues 1-111 of Rep, tag left off): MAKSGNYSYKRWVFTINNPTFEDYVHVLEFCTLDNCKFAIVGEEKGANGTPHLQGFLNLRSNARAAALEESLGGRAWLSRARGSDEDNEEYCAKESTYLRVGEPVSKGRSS
# Procedure: (§1)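 A pool of 90-nt single-stranded DNAs with seven random bases just before the constant AC of the nick site (name = the seven bases) was cut by 3 µM recombinant His6-SUMO-tagged Rep nickase domain (300 nM DNA, 50 mM HEPES pH 8.0, 50 mM NaCl, 1 mM MnCl2, 1 h, 37 °C, three replicates). Uncut DNA was amplified and sequenced.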
# [2] = tested on: T2, Rep nickase domain of banana bunchy top virus
# T2 sequence (residues 1-94 of Rep, tag left off): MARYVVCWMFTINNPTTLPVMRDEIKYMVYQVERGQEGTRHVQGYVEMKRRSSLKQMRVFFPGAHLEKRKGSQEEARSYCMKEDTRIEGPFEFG
# Procedure: as §1
# [3] = tested on: T3, Rep nickase domain of cabbage leaf curl virus
# T3 sequence (residues 1-116 of Rep, tag left off): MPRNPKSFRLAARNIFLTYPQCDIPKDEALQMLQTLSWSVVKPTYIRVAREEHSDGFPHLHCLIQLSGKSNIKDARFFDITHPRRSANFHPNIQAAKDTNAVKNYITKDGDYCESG
# Procedure: as §1
# [4] = tested on: T4, Rep nickase domain of chickpea chlorotic dwarf virus
# T4 sequence (residues 1-124 of Rep, tag left off): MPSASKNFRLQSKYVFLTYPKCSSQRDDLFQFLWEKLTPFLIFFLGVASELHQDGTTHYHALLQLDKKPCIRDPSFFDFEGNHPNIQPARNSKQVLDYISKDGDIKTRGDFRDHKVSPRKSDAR
# Procedure: as §1
# [5] = tested on: T5, Rep nickase domain of faba bean necrotic yellows virus
# T5 sequence (residues 1-98 of Rep, tag left off): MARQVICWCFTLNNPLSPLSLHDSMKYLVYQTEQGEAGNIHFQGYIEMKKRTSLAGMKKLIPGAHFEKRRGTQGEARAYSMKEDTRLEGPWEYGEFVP
# Procedure: as §1
# [6] = tested on: T6, Rep nickase domain of maize striate mosaic virus
# T6 sequence (residues 1-117 of Rep, tag left off): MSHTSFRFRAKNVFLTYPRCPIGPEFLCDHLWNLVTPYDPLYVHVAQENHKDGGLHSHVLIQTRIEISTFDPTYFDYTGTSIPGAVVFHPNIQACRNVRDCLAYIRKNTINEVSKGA
# Procedure: as §1
# [7] = tested on: T7, Rep nickase domain of porcine circovirus 2
# T7 sequence (residues 2-116 of Rep, tag left off): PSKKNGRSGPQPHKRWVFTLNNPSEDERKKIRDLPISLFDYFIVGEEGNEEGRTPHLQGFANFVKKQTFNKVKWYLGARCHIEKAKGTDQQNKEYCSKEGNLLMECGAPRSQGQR
# Procedure: as §1
# [8] = tested on: T8, Rep nickase domain of tomato golden mosaic virus
# T8 sequence (residues 1-124 of Rep, tag left off): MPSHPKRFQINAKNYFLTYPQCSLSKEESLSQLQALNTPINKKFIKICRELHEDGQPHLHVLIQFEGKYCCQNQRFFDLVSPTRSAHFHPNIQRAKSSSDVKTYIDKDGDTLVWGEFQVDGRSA
# Procedure: as §1
# [9] = tested on: T9, Rep nickase domain of tomato yellow leaf curl virus
# T9 sequence (residues 1-136 of Rep, tag left off): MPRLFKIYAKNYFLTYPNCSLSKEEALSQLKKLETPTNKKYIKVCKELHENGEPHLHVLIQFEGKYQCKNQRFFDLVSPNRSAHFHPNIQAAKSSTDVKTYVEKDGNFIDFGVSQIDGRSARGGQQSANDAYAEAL
# Procedure: as §1
# [10] = tested on: T10, Rep nickase domain of wheat dwarf virus
# T10 sequence (residues 1-137 of Rep, tag left off): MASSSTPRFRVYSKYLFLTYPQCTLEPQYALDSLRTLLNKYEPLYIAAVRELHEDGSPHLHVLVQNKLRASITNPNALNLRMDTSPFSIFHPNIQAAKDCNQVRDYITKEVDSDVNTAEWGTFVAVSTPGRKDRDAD
# Procedure: as §1
Sequence,uncleaved DNA left (log2) [1],uncleaved DNA left (log2) [2],uncleaved DNA left (log2) [3],uncleaved DNA left (log2) [4],uncleaved DNA left (log2) [5],uncleaved DNA left (log2) [6],uncleaved DNA left (log2) [7],uncleaved DNA left (log2) [8],uncleaved DNA left (log2) [9],uncleaved DNA left (log2) [10]
GGCGGAC,-0.123,-0.0735,0.688,1.72,-0.141,2.07,0.143,-0.0679,0.0221,-0.0166
TATCTCG,0.0079,0.0266,-0.68,-0.568,0.237,-1.04,0.251,-0.0346,-0.00329,0.0765
GGGGTTA,-0.0194,-0.00503,0.697,1.63,-0.079,2.05,0.0848,-0.0602,-0.0381,0.0147
GTGAGCA,0.118,0.176,0.434,1.06,0.148,1.44,-0.0775,0.129,0.242,0.229
ATACAAA,-0.0345,-0.00276,-0.0511,-0.371,0.122,-0.67,-0.0487,-0.0591,-0.0025,0.049
AGCATCA,0.0421,0.159,0.353,0.371,-0.0365,0.488,-0.451,0.0582,-0.00528,0.129
CGAGGCT,-0.0467,-0.108,9.68e-05,-0.392,-0.125,-0.232,-0.149,-0.00602,0.0116,-0.0613
CCCGGCC,0.0272,-0.0433,0.0963,0.298,0.0392,-0.354,0.167,0.0428,-0.108,0.0476
GTCACAT,0.0451,0.201,0.648,1.4,0.0211,1.99,0.192,0.0882,0.0777,0.188
GCGCCCA,-0.0168,-0.0481,0.0163,-0.0529,-0.152,0.173,-0.196,-0.00604,0.0336,-0.0481
GAGTTGC,-0.0206,-0.0673,-0.467,-0.279,0.0663,-0.807,0.0158,-0.157,0.025,-0.104
GTTGAGA,0.00127,0.0134,0.22,0.732,0.115,0.673,0.0888,0.0733,0.0456,0.0491
TCTCTCA,-0.105,-0.268,-0.0315,-0.94,-0.13,-0.316,-0.061,-0.146,-0.153,-0.202
GTTACCG,-0.0816,-0.0615,-0.652,-1.32,-0.0879,-0.752,0.0151,-0.0326,-0.111,-0.0941
CTGGCAT,-0.0596,-0.0393,0.294,1.16,-0.191,1.18,0.152,-0.0749,-0.0833,0.0953
